Measurements taken from the supplement of paper PMC3334620.
Over roughly 33,000 sequences, “E-score (-0.5 to 0.5)” has its median near -0.017; the highest 2% begin near 0.3. This is one part of the list.

Each sequence was assayed against T1, Sut1 (UniProt P53032) (assay: PBM E-score (8-mer binding enrichment) (E-score (-0.5 to 0.5)); higher = stronger / more preferred TF binding; most listed sequences are background and not binding sites). Settings: protein concentration: 200 nM; construct: GST-full length.
T1 sequence: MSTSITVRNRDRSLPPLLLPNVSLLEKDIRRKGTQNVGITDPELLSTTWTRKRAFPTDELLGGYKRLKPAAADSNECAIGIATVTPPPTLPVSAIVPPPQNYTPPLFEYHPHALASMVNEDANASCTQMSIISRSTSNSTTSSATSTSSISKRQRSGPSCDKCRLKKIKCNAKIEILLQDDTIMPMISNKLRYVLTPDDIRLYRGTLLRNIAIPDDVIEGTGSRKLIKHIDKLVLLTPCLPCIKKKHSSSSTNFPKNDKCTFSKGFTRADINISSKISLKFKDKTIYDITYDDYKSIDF
In short: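 Yeast transcription factors, full-length or as DNA-binding domains, were expressed with a GST tag using PURExpress in vitro transcription/translation. At about 100-200 nM they were applied to universal all-10-mer Agilent arrays, double-stranded by primer extension on fresh or once-stripped slides. Fluorescent anti-GST detected bound protein, and masliner normalised the scans. E-scores for ungapped eight-base words, pooled with reverse complements, came from the Universal PBM Analysis Suite.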

Sequence | PBM E-score
GTTAACCA | 0.0107
GTGCAAGA | 0.0812
ATTATTCC | 0.288
ACTCACAT | 0.027
ATGGGTGG | -0.106
ACGCAGAC | -0.153
ACCGTTCA | -0.131
ATGTGACG | -0.16
ACATTTGG | -0.0798
GCACAGAC | -0.0501
CGAAGGTA | -0.0153
GTAGCTGA | -0.23
ATAAAGGA | -0.0584
CTCGATAA | 0.0724
AAAAGAAC | 0.164
AGACACAT | -0.138
CCCCGTCG | -0.248
CAGTATGA | 0.00658
ACGGCATG | -0.236
CACCACGA | 0.0198
AGACACAG | 0.00857
CGGTATGC | -0.22
AAAATAAT | 0.279
GACCTGTA | -0.0355

Sequence | PBM E-score
CCAATAAA | 0.148
AGTAGCGA | 0.0569
AGTCCGGA | 0.487
GGAAGCTA | 0.124
CTGGTTGA | -0.208
CTGTGGGA | -0.301
CAAATACA | 0.115
CTAATTTC | 0.299
GCGATAGC | -0.0987
TAGAGAAA | -0.00228
CACACGGG | -0.067
AAGCAAAA | 0.195
GCTTCATA | 0.0636
CCGCCCCC | -0.19
CAGCTCCA | -0.0491
AATACAAG | 0.123
CTCGAAAC | 0.0798
CAGCGGGC | -0.158
CAAACAGG | -0.292
AAAAACTT | 0.163
AATCATGA | 0.224
CCTGCTCC | 0.00148
CCAAGTCA | -0.059
AATAAAAG | 0.142

Sequence | PBM E-score
AGTTTGGC | -0.0727
TCAAGACA | -0.0678
GGGACTCA | -0.288
TCGCACGA | -0.136
ACCAGATG | -0.227
CCAGACCC | -0.324
CAGATTCG | -0.00249
AGGCGCCA | -0.0768
GGTGACAC | -0.176
CGGGCCCC | -0.25
CCGAGGGA | -0.172
CGCTCTGC | -0.101
AACTCGTA | 0.0961
ATTTCCTC | 0.051
CATAGCGG | -0.0946
AACGCACA | 0.00372
GCCGCGGC | 0.0334
ATCATGGA | -0.138
AAGTTTGC | 0.0892
CGAGAAAG | 0.112
CGAGCAGA | -0.27
GCGACCGA | -0.0351
AACTTCCC | -0.0211
AATGGAGC | -0.088

Sequence | PBM E-score
GGTCCGAC | 0.24
GGGTTAAA | -0.0466
CTTCTGTA | -0.0703
CAGTTTCG | -0.0259
CCTCCCCG | -0.0253
AGGAATTA | 0.137
CGATCAAA | 0.123
TAACCGCA | 0.0567
ATCGATCC | -0.241
CATGCGCG | -0.108
ATGCTTGG | -0.141
CTACGAGA | -0.0228
AGAAGAGA | 0.00644
ATTTTTCA | 0.116
AAGAAGTC | 0.172
CCCCCGGA | 0.0624
ACCCTTAT | -0.0526
AAAATTCG | 0.216
AATCGCGC | -0.0232
GAAGCAAC | -0.0509
CGCGGTGA | -0.18
CAACAGAG | -0.045
